# Data published in PubChem BioAssay AID1347073 (National Center for Advancing Translational Sciences (NCATS), 2019).
# Out of some 45,000 compounds screened, about 200 (0.44%) were called active. Roughly 7% stayed inconclusive and do not appear here. Calls follow the shape of the dose curve; as a rule, active = well fitted activation curve with a large enough effect; inconclusive = small, poorly fitted or top-dose-only effect; inactive = no such curve, though single readings can be large or run the other way. Some of the results follow. Peptide text beside a SMILES is read from it. * marks the point of attachment. Boc = CC(C)(C)OC(=O)*
# Assay: qHTS of TDP-43 Inhibitors: NCGC Sytravon Library Screen; also: 0% is about no effect; nearly all actives have a fitted effect of over 55% in size
# Details: yeast TDP-43 toxicity rescue, BacTiter-Glo growth, 24 h; series mostly up to 46.1 µM; growth rescue (activation): at the top concentration
# In short: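 TDP-43-expressing yeast, pregrown in raffinose, seeded at OD600 0.02 in galactose medium with compound for 24 hr at 30 deg C. Growth read by BacTiter-Glo luminescence, so rescue of toxicity appears as activation.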
row,Compound,growth rescue (activation)
1,Cc1ccc(NC(=O)CN2C(=O)NC(C)(CC(C)C)C2=O)c(Br)c1 (stereo unspecified),inactive: 1.56%
2,COC(=O)/C(=C/c1ccco1)NC(=O)c1ccc(Br)o1,inactive: -3.1%
3,Cn1c(=O)[nH]c(=O)c2c1nc(N1CCCCCC1)n2Cc1cccc2ccccc12,inactive: 15.7%
4,Cc1cccc(NC(=O)COC(=O)c2ccccn2)c1,inactive: 7.23%
5,CC(C)CC(NC(=O)c1cccs1)c1nnc(SCc2ccc(Cl)c(Cl)c2)n1C (stereo unspecified),inactive: 10.2%
6,Cc1ccc(SCCOCCN2CC(C)OC(C)C2)cc1 (stereo unspecified),inactive: -9.86%
7,Cc1cc(Nc2cccc(Cl)c2)nc(-c2ccccc2O)n1,inactive: 13.3%
8,CCc1ccc(C(C(=O)NC2CCCCC2)N(C(=O)c2csnn2)C2CC2)cc1 (stereo unspecified),inactive: -2.56%
9,CCc1nc2c(OCc3ccc(OC)cc3)cccn2c1N(C)C(=O)c1ccc(OC)cc1,inactive: 2.37%
10,CC1(C)Cc2c(sc3[nH]c(=S)[nH]c(=O)c23)CO1,inactive: 5.27%
11,CC(=O)Oc1ccc(/C=C2/C(=O)N(c3ccccc3)N=C2C)cc1,inactive: -3.85%
12,COc1ccc(-c2nnc(C(C)Nc3cccc(C(=O)NC4CC4)c3)o2)cc1 (stereo unspecified),inactive: 23.6%
13,COC(=O)c1ccc(Cl)c(NC(=O)c2cccc([N+](=O)[O-])c2C)c1,inactive: 6.17%
14,Cc1ccc([N+](=O)[O-])cc1S(=O)(=O)Nc1cccc(S(=O)(=O)NC2=NCCC2)c1,inactive: 6.73%
15,CC(C)n1nc(C(=O)Nc2ccc(-n3cnnn3)cc2)c2ccccc2c1=O,inactive: 4.06%
16,COc1cccc(NC(=O)Cn2c(CCC(=O)O)ccc2-c2cccs2)c1,inactive: -8.95%
17,Cc1cc(C(=O)CSc2nnc(-c3ccco3)o2)c(C)n1C,inactive: 7.27%
18,Cc1nn(-c2ccc([N+](=O)[O-])cc2)c2c1C(c1cccc(Br)c1)N1C(=N2)C(=O)Nc2ccccc21 (stereo unspecified),inactive: 11.7%
19,CCCc1nc(C)cc(N2CCN(c3ccccc3)CC2)n1,inactive: -9.94%
20,O=C(NCCCN1CCOCC1)c1nn2c(C(F)(F)F)cc(-c3ccco3)nc2c1Cl,inactive: -7.81%
21,Cc1ccccc1OCCOC(=O)c1c(-c2ccccc2)noc1C,inactive: 19%
22,CCOC(=O)c1cc(NC(=O)COc2ccc([N+](=O)[O-])cc2)cc(C(=O)OCC)c1,inactive: -24.9%

row,Compound,growth rescue (activation)
1,CCCCc1c(C)nc2c(OC)cccc2c1SCC(=O)O,inactive: -3.64%
2,COC(=O)C(CC(C)C)NC(=O)/C=C/c1ccccc1Cl (stereo unspecified),inactive: 2.13%
3,COc1ccc2oc(C(F)(F)C(F)(F)F)cc(=O)c2c1,inactive: 36.8%
4,Nc1ccc(NC(=O)c2ccco2)c(Cl)c1,inactive: 4.65%
5,Cc1ccc(NC(=O)c2ccco2)c(NC(=O)COc2ccccc2)c1,inactive: 21.4%
6,O=C(Nc1ccc(NC(=O)c2ccc3c(c2)OCCO3)cc1)c1ccccc1,inactive: 2.86%
7,CCn1nnnc1SCC(=O)Nc1ccc(F)cc1,inactive: -23.8%
8,CCOc1ccccc1N1CC(C(=O)N2CCOCC2)CC1=O (stereo unspecified),inactive: 14.9%
9,COc1ccc(NC(=O)C2CCN(C(=O)c3ccco3)CC2)c(OC)c1,inactive: 7.71%
10,O=C1c2ccccc2NC(c2cccs2)N1NS(=O)(=O)c1ccccc1 (stereo unspecified),inactive: -5.17%
11,O=c1cc(-c2ccccc2)nc(SCc2ccc(Cl)cc2)[nH]1,inactive: -24.4%
12,CC(OC(=O)c1cc2c(s1)CCCCC2)C(=O)NC(N)=O (stereo unspecified),inactive: 8.06%
13,CCCCCn1c(=O)[nH]c2cc(C(=O)NCc3ccccn3)ccc2c1=O,inactive: 4.2%
14,COc1ccc(N2CCN(C(=O)C34CCC(C)(C(=O)C3)C4(C)C)CC2)cc1 (stereo unspecified),inactive: 3.61%
15,NC(=NC1CCCCC1)c1ccc(Cl)cc1,inactive: -4.36%
16,CCCCNC(=O)CSc1nc(N)c(C(=O)Nc2ccc(OC)cc2)s1,inactive: -3.68%
17,COc1cc2c(c(OC)c1OC)-c1ccc(OC)c(=O)cc1[C@@H](N(C)CC#CCO)CC2,inactive: 7.6%
18,COc1cc(S(=O)(=O)N2CCCCC2)ccc1NC(=O)c1ccncc1,inactive: 3.78%
19,CN1C/C(=C/c2ccsc2)C(=O)/C(=C/c2ccsc2)C1,inactive: -2.38%
20,CC(=O)Nc1ccc(SCC(=O)N2CCN(S(=O)(=O)c3ccccc3)CC2)cc1,inactive: -2.54%
21,Cc1cc(NC(=O)C2C3C(=O)N(Cc4ccc(Cl)cc4)C(C(=O)NCc4ccccc4)C34C=CC2(C)O4)no1 (stereo unspecified),inactive: -2.59%
22,O=C(NCc1cccs1)c1ccc([N+](=O)[O-])cc1,inactive: 7.63%

row,Compound,growth rescue (activation)
1,CC(=O)NC1C(=O)N(CCN2CCOCC2)c2ccc(Cl)cc21 (stereo unspecified),inactive: -16.5%
2,Cc1ccc(NC(=O)C2CC(O)CN2C(=O)Oc2ccccc2)c(C)c1 (stereo unspecified),inactive: -4.09%
3,COc1ccccc1NS(=O)(=O)c1cccc(NC(=O)Nc2ccc(Cl)cc2)c1,inactive: 2.23%
4,COc1ccc(S(=O)(=O)NCCc2ccccn2)cc1,inactive: 2.55%
5,COc1ccc(N(CC(=O)N2CCN(c3ccccc3F)CC2)S(=O)(=O)c2c(C)n[nH]c2C)cc1,inactive: -7%
6,CC(C)NC(=O)C1(C)CCN1C/C=C/c1ccccc1 (stereo unspecified),inactive: -0.999%
7,COc1ccc(C(CCNCc2ccc(N(C)C)cc2)c2ccccc2)cc1 (stereo unspecified),inactive: 4.16%
8,CS(=O)(=O)N(Cc1ccc(Cl)cc1)c1ccc(C(=O)NCC2CCCO2)cc1 (stereo unspecified),inactive: -4.54%
9,CC1CC(=O)NN1C(=O)c1ccccc1 (stereo unspecified),inactive: -16.7%
10,CC(C)(C)CN1CCNC(=O)C1CC(=O)N1CCOc2ccccc2C1 (stereo unspecified),inactive: -20.3%
11,Nc1cc(S(=O)(=O)N2CCCCC2)ccc1Oc1ccccc1,inactive: 14.7%
12,O=C(COc1ccccc1F)Nc1cc(S(=O)(=O)N2CCOCC2)ccc1N1CCOCC1,inactive: 8.42%
13,O=C(Nc1nc(-c2cccc([N+](=O)[O-])c2)cs1)c1cccc([N+](=O)[O-])c1C(=O)O,inactive: -6.35%
14,O=C(COC(=O)c1cccc(S(=O)(=O)NCc2ccccc2)c1)NC1CC1,inactive: 4.54%
15,COc1ccc(C)cc1S(=O)(=O)NC1CCCCC1C (stereo unspecified),inactive: 17.3%
16,COc1ccc(Nc2ccc(N3C(=O)CC(C)C3=O)cc2[N+](=O)[O-])cc1OC (stereo unspecified),inactive: 7.17%
17,C=CCOc1ccccc1CNc1cccc(F)c1,inactive: 11.1%
18,CCOc1cc(/C=N/Nc2nc(-c3cccs3)c(NC(C)=O)s2)ccc1O,inactive: -9.52%
19,CC(=C/c1ccco1)/C=N/NC(=O)Cc1cccn1C,inactive: 17.2%
20,O=C(NCC(c1ccc(F)cc1)N1CCOCC1)c1ccccc1F (stereo unspecified),inactive: 27.1%
21,Cc1cc(C)n(-c2nc(NCCN(C)C)c3c4c(sc3n2)COC(C)(C)C4)n1,inactive: -16.5%
22,CCC(C)(C)C1CCc2[nH]nc(C(=O)N/N=C(\C)c3ccco3)c2C1 (stereo unspecified),inactive: -0.206%

row,Compound,growth rescue (activation)
1,CN1CCC(=NNC(=O)C(=O)NC2CCCC2)CC1,inactive: 33.9%
2,CSc1cc(-c2ccccc2)n(C)c(=O)c1C#N,inactive: 20.1%
3,CCOc1ccc(-n2cc(C(=O)NCc3ccco3)c3cc(OC)c(OC)cc3c2=O)cc1,inactive: 27.1%
4,CCC(C)C(NC(=O)OC(C)(C)C)C(=O)NC(CC(C)C)C(N)=O (stereo not drawn) (Boc-Ile-Leu-NH2; configuration not given here),inactive: -8.71%
5,CCCCOc1ccc(-c2c(C(=O)Nc3ccccc3)c(C)[nH]c(=S)c2C#N)cc1,inactive: 2.75%
6,COc1cc(OC)cc(C(=O)Nc2ccc3oc(-c4cccc5c(Br)cccc45)nc3c2)c1,inactive: 5.02%
7,Cc1nc(C)n(CC(C)C(=O)N2CCN(S(=O)(=O)c3ccc(Cl)cc3)CC2)n1 (stereo unspecified),inactive: -15%
8,COc1cc(NC(=O)c2ccc(Cl)cc2Cl)ccc1NC(=O)c1cccs1,inactive: 20.6%
9,N/C(=N\c1nc2ccccc2o1)NC(=O)c1ccccc1,inactive: 41.7%
10,Cc1nn(CC(C)C)c(Cl)c1C(=O)N(c1ccc(Cl)cc1F)S(C)(=O)=O,inactive: 2.98%
11,CN(c1ccccc1)S(=O)(=O)c1ccc(Cl)c(C(=O)OCC(N)=O)c1,inactive: 4.72%
12,COc1ccc(C(=O)Nc2cccc(C(=O)N3CCCCC3)c2)cc1,inactive: 17.5%
13,O=C(CCn1c(=O)oc2ccccc21)NCCCN1CCOCC1,inactive: 6.36%
14,CCCS(=O)(=O)c1nc(S(=O)(=O)c2ccc(C)cc2)c(NCc2ccccc2)s1,inactive: -9.89%
15,O=C(O)CSc1ncccn1,inactive: -12.8%
16,CC(C)c1ccc(N(CC(=O)N2CCOCC2)S(C)(=O)=O)cc1,inactive: -9.56%
17,COCCN1C(=O)C(=O)/C(=C(/O)c2ccc(S(=O)(=O)N3CCOCC3)cc2)C1c1ccc(O)cc1 (stereo unspecified),inactive: 17.5%
18,O=S1(=O)N=C(N/N=C/C=C/c2ccccc2)c2ccccc21,inactive: 23.1%
19,Cn1c(COc2ccccc2)nnc1SCC(=O)Nc1nnc(C2CC2)s1,inactive: 2.62%
20,O=[N+]([O-])c1ccc(N2CCN(c3cccc(Cl)c3)CC2)cn1,inactive: 19%
21,CCc1ccc(NC(=O)C(=O)NNC(=O)c2ccc(OC)cc2)cc1,inactive: 15.9%
22,CCc1cccc(NC(=O)CCCn2c(=O)[nH]c3ccsc3c2=O)c1,inactive: 11.9%

row,Compound,growth rescue (activation)
1,O=C(COC(=O)c1ccncc1)Nc1ccc2c(c1)OCO2,inactive: 5.9%
2,COc1ccc(CC(N)c2csc(Nc3ncccn3)n2)cc1 (stereo unspecified),inactive: 2.47%
3,COc1cccc(C2Nc3cccc4cccc(c34)N2)c1,inactive: 12%
4,COc1cc(OC)c2nc(C)c3c(c2c1)N(c1ccc(O)cc1)CC3,inactive: 18%
5,Cc1nc(NCc2cccnc2)c2c3c(sc2n1)CCCC3,inactive: -3.4%
6,CCOc1ccc(N=Cc2c(C)[nH]n(-c3nc4ccccc4[nH]3)c2=O)cc1,inactive: -55%
7,CN(C)S(=O)(=O)c1ccc(C(=O)/C=C/c2cccnc2)cc1,inactive: 4.97%
8,COc1ccc(C(=O)NCCNC(=O)c2cnccn2)cc1OC,inactive: 9.95%
9,O=C(CN1N=C(c2ccc(Cl)cc2)CCC1=O)NCCN1CCc2ccccc2C1,inactive: 18%
10,O=C(c1ccccc1)N1N=C(c2ccccc2)CC1c1ccccc1[N+](=O)[O-] (stereo unspecified),inactive: 2.53%
11,CCOC(=O)c1sc(NC(=S)NC(=O)c2ccccc2)c(C(=O)OCC)c1C,inactive: 1%
12,CN1CCN(C(=O)/C(=C\c2cccs2)NC(=O)c2ccccc2)CC1,inactive: -13.6%
13,COC(=O)C1CCN(C(=O)COC(=O)[C@@H]2CC(O)CN2S(=O)(=O)c2ccc3c(c2)OCCO3)CC1 (stereo partly specified),inactive: 31.1%
14,CCc1nn2c(=O)c(S(=O)(=O)Nc3cccc(F)c3)c(C)nc2s1,inactive: 12.7%
15,Cc1ccc(C)c(Cn2cnc3c(oc4ccccc43)c2=O)c1,inactive: 8.83%
16,COc1cc(CO)ccc1OCC(=O)Nc1cccc2ccccc12,inactive: 18.9%
17,COc1ccc(CNC(=S)NNC(=O)c2cc3ccccc3o2)cc1,inactive: 11.6%
18,CCOc1ccc(Cl)cc1S(=O)(=O)N1CCC(C(=O)NCc2ccncc2)CC1,inactive: 10.6%
